In the supplement of paper PMC12009370:
The list shows a part of the results. Single values are uncertain, as repeats are few or missing.

Legend:
IMR-32 [1] = test: drug sensitivity score (DSS), single drug with vehicle (DSS (score)); higher = more cytotoxic; extreme values may be limits of the assay; settings: 72 h; co-treatment: vehicle (DMSO)
SK-N-AS [2] = test: as above; settings: 72 h; co-treatment: vehicle (DMSO)
SK-N-AS [3] = test: drug sensitivity score (DSS) in combination with SL-176 (DSS (score)); higher = more cytotoxic; extreme values may be limits of the assay; settings: 72 h; co-treatment: SL-176 11.2 uM (IC25 in IMR-32)
IMR-32 [4] = test: as above; settings: 72 h; co-treatment: SL-176 11.2 uM (IC25 in IMR-32)
SK-N-AS [5] = test: drug sensitivity score (DSS) in combination with GSK2830371 (DSS (score)); neuroblastoma lines; SL-176 and GSK2830371 are WIP1 inhibitors; higher = more cytotoxic; extreme values may be limits of the assay; settings: 72 h; co-treatment: GSK2830371 at IC25 in IMR-32
IMR-32 [6] = test: as above; settings: 72 h; co-treatment: GSK2830371 at IC25 in IMR-32
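Wherever drug sensitivity score (DSS) in combination with GSK2830371 is given: neuroblastoma cells in 384-well plates, each compound at five concentrations, luminescence read-out, DSS derived from fitted concentration-response curve combining IC50 with minimum and maximum inhibition.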
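Wherever drug sensitivity score (DSS) in combination with SL-176 is given: cells in 384-well plates, luminescence read-out, each screening drug at five concentrations, DSS derived from the fitted concentration-response curve combining IC50 with minimum and maximum inhibition.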
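Wherever drug sensitivity score (DSS), single drug with vehicle is given: 384-well screen with five concentrations per compound and a luminescence read-out, DSS computed from the fitted dose-response curve combining IC50 with minimum and maximum inhibition.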

Compound	drug sensitivity score (IMR-32 [1])	drug sensitivity score (SK-N-AS [2])	drug sensitivity score (SK-N-AS [3])	drug sensitivity score (IMR-32 [4])	drug sensitivity score (SK-N-AS [5])	drug sensitivity score (IMR-32 [6])
OC[C@H]1O[C@@H](n2cnc3c2N=CNC[C@H]3O)C[C@@H]1O [Pentostatin]	0	0	0	0	0	0
Nc1cccc2c1C(=O)N(C1CCC(=O)NC1=O)C2=O (configuration not stated) [Pomalidomide]	0	0	0	0	0	0
CNS(=O)(=O)Nc1nccc(Cc2c(C)c3ccc(Oc4ncccn4)cc3oc2=O)c1F	0	4	4.1	0	4.6	3.3
CC(=O)c1cc2c(o1)C(=O)c1ccccc1C2=O [Napabucasin]	20.3	17.3	16.7	17.2	17.6	20.4
Cc1nc(NC(=O)N2CCC[C@H]2C(N)=O)sc1-c1ccnc(C(C)(C)C(F)(F)F)c1 [Alpelisib]	0.3	1.5	1.8	5.6	1.5	0.7
COc1cc(N2CCC(N3CCN(C)CC3)CC2)ccc1Nc1ncnc(Nc2ccccc2S(=O)(=O)C(C)C)n1	3.2	6.3	5.9	14.5	7	3.6
C=CC(=O)Nc1cccc(Nc2nc(Nc3ccc(OCCOC)cc3)ncc2F)c1 [Spebrutinib]	1.8	1.3	0.4	0	1.4	3.5
CC(C)(O)CC(=O)NCCn1ccc2ncnc(Nc3ccc(Oc4cccc(C(F)(F)F)c4)c(Cl)c3)c21	0.2	0	0.3	0	0.1	0
CCc1cc2c(cc1N1CCC(N3CCOCC3)CC1)C(C)(C)c1[nH]c3cc(C#N)ccc3c1C2=O [Alectinib]	2.3	3.5	2.8	1.3	2.6	2.8
COc1cc(Nc2ncc(F)c(Nc3ccc4c(n3)NC(=O)C(C)(C)O4)n2)cc(OC)c1OC [Tamatinib]	6.3	3.3	1.5	1.9	3.1	10.2
CCc1c2c(nc3ccc(O)cc13)-c1cc3c(c(=O)n1C2)COC(=O)[C@]3(O)CC	47.8	24.6	25.4	47.9	27.7	47.9
COc1cc2nccc(Oc3ccc(NC(=O)NC4CC4)c(Cl)c3)c2cc1C(N)=O [Lenvatinib]	0	0	0	1.2	0	1.3
CNC(=O)c1cc(COc2nnc(Nc3ccc(Cl)cc3)c3ccoc23)ccn1 [Telatinib]	3.1	0	0	0	0	0.5
Cc1cc(-c2nc(-c3ccc(OC(F)(F)F)cc3)no2)nn1Cc1ccnc(N2CCN(C3CC3)CC2)c1	0	20.3	17.4	13.9	22	4.8
CC(=O)Nc1cccc(-n2c(=O)n(C3CC3)c(=O)c3c(Nc4ccc(I)cc4F)n(C)c(=O)c(C)c32)c1 [Trametinib]	0	22.6	22.4	0	22.9	0.2
Nc1nc(F)nc2c1ncn2[C@@H]1O[C@H](CO)[C@@H](O)[C@@H]1O [Fludarabine]	6.5	0.1	0	4.6	0	5.6
COc1cc2c(N3CCN(C(=O)Nc4ccc(OC(C)C)cc4)CC3)ncnc2cc1OCCCN1CCCCC1 [Tandutinib]	0	0	0	0	0	0
Cc1nn(C)c(COc2ccc(N3CCN(S(=O)(=O)N(C)C)CC3)cc2)c1-c1cccc2c(CCCOc3cccc4ccccc34)c(C(=O)O)n(CCN3CCOCC3)c12	4.6	8.9	8.7	10.8	8.2	7
COc1cc2c(cc1-c1c(C)noc1C)ncc1[nH]c(=O)n([C@H](C)c3ccccn3)c12	10.8	6.9	7.5	12.4	8.7	12.5
COc1c(C)cnc(Cn2cnc3c(Cl)nc(N)nc32)c1C	17.8	18.1	22	15.7	19.4	22.2
CCNc1nc(Nc2cc(F)c(C(=O)N3CCOCC3)cc2OC)ncc1C(F)(F)F	0	0	0	0	0	0
CO[C@H]1C[C@@H]2CC[C@@H](C)[C@@](O)(O2)C(=O)C(=O)N2CCCC[C@H]2C(=O)O[C@H]([C@H](C)C[C@@H]2CC[C@@H](OCCO)[C@H](OC)C2)CC(=O)[C@H](C)/C=C(\C)[C@@H](O)[C@@H](OC)C(=O)[C@H](C)C[C@H](C)/C=C/C=C/C=C/1C [Everolimus]	9.1	8.8	6.3	4.4	8.2	8
Cc1cc(Nc2cc(N3CCN(C)CC3)nc(/C=C/c3ccccc3)n2)n[nH]1	20.8	11.7	11.2	19.8	11.9	19.4
CCc1cncnc1N1CCN(Cc2nc3ccc(C(F)(F)F)cc3[nH]2)CC1	2.7	0.1	2.5	2.6	0	6.3

Compound	drug sensitivity score (IMR-32 [1])	drug sensitivity score (SK-N-AS [2])	drug sensitivity score (SK-N-AS [3])	drug sensitivity score (IMR-32 [4])	drug sensitivity score (SK-N-AS [5])	drug sensitivity score (IMR-32 [6])
C[C@@H](C(=O)O)c1ccc(-c2ccccc2)c(F)c1 [Tarenflurbil]	0	0	3.6	0.2	0	0
Cc1cc(OCc2nnc(SC3CCCC3)n2-c2cccnc2)ccc1-c1ccc(S(C)(=O)=O)cc1	8.9	13.2	10.3	9.4	9.8	8.7
COc1cc(Nc2c(C#N)cnc3cc(OCCCN4CCN(C)CC4)c(OC)cc23)c(Cl)cc1Cl [Bosutinib]	6.9	9.3	8.9	7.4	9.4	7.1
Cn1ncnc1[C@H]1c2n[nH]c(=O)c3cc(F)cc(c23)N[C@@H]1c1ccc(F)cc1 [Talazoparib]	27	3.1	1.5	27.9	1.6	32.6
Nc1cc(F)ccc1NC(=O)c1ccc(CNC(=O)/C=C/c2cccnc2)cc1 [Tucidinostat]	14.1	8.8	7.1	11.1	8.6	15.4
CN1CC[C@H](c2c(O)cc(O)c3c(=O)cc(-c4ccccc4Cl)oc23)[C@H](O)C1 [Alvocidib]	18.3	17.3	19.1	20.4	19.2	18.5
COc1c(OCCCN2CCOCC2)ccc2c1N=C(NC(=O)c1cnc(N)nc1)N1CCN=C21 [Copanlisib]	6.2	8.2	8.4	5.4	7.6	9
CCCCOc1nc(N)c2c(n1)N(Cc1cccc(CN3CCCC3)c1)CC(=O)N2 [Vesatolimod]	0.1	0	0	0	0	0
Cc1[nH]nc(C(F)(F)F)c1Cc1sc2c(c1C(=O)N1C[C@](C)(O)CO1)c(=O)n(C)c(=O)n2C(C)C	9.8	4.4	4.8	8.6	5.1	10.5
COCCNCc1ccc(-c2cc3nccc(Oc4ccc(NC(=S)NC(=O)Cc5ccc(F)cc5)cc4F)c3s2)nc1 [Glesatinib]	3.6	1.1	0.9	5.4	0.6	4.8
CO[C@@H](C)Cn1c(=O)n(C)c2cnc3ccc(-c4cncc(C(C)(C)O)c4)cc3c21	11.6	12.3	11.6	9.6	12.8	13.6
CN(Cc1cnc2nc(N)nc(N)c2n1)c1ccc(C(=O)N[C@@H](CCC(=O)O)C(=O)O)cc1 [Methotrexate]	18.7	7.9	9.7	13.5	13.1	17.7
CN1CCN(c2nc(C3=C(c4c[nH]c5ccccc45)C(=O)NC3=O)c3ccccc3n2)CC1 [Sotrastaurin]	5.2	0.8	2.1	3.5	0.8	7
NCC(=O)Nc1ccc(-n2nc(C(F)(F)F)cc2-c2ccc3c(ccc4ccccc43)c2)cc1	19.3	0	0	13.9	0	20.8
O=C(/C=C\n1cnc(-c2cc(C(F)(F)F)cc(C(F)(F)F)c2)n1)NNc1ccccn1 [Verdinexor]	17.5	7.9	8	17.4	6.1	19.9
Cn1cc(-c2ccc(F)c(C(F)(F)F)c2)nc1C1CCN(c2ncnc3[nH]ncc23)CC1	3.5	0	0	0	0	4.2
COc1cc2c(Oc3ccc(NC(=O)C4(C(=O)Nc5ccc(F)cc5)CC4)cc3F)ccnc2cc1OCCCN1CCOCC1 [Foretinib]	6.1	2.9	1.6	8.5	3.4	4.9
Cc1c(F)cc(C(=O)NC2CC2)cc1-c1ccc(C(=O)NCC(C)(C)C)cn1 [Losmapimod]	3.3	0	1.1	6.4	0	6.6
CCn1c(C(=O)N(C2CC2)C2CC2)cc2c3c(ncn3C)c(Nc3cc(C)n(C)n3)nc21	1.7	1.9	0.4	0	1	0.4
Cn1cnc2c(F)c(Nc3ccc(Br)cc3Cl)c(C(=O)NOCCO)cc21 [Selumetinib]	4	21.8	21.1	0.8	20.9	1.3
CN[C@@H]1C[C@H]2O[C@@](C)([C@@H]1OC)n1c3ccccc3c3c4c(c5c6ccccc6n2c5c31)C(=O)N[C@H]4O	22.4	26.2	26.6	25.7	26.4	27.8
CCN1CCN(c2ccc(Nc3cc(N(C)C(=O)Nc4c(Cl)c(OC)cc(OC)c4Cl)ncn3)cc2)CC1 [Infigratinib]	0	0	0	0	0	0
c1cn2cc(-c3ccc4cn[nH]c4c3)nc(Nc3ccc(N4CCOCC4)cc3)c2n1 [Entospletinib]	2	1.7	2.4	0	2.3	3.4
